Data as given in PubChem BioAssay AID485281 (National Center for Advancing Translational Sciences (NCATS), 2010).
Screen size: about 350,000 compounds; about 260 (0.074%) were called active. The shares of active, inactive and inconclusive entries below differ from those in the screen. Calls come from the whole dose curve; as a rule, active = well fitted inhibition curve with a large enough effect; inconclusive = small, poorly fitted or top-dose-only effect; inactive = no such curve, though single readings can be large or run the other way. A potency beside an inconclusive call is a rough fit, not a confirmed value.

Molecular target: Ferritin light chain (Equus caballus) (UniProt P02791)
Sequence of UniProt P02791 (P02791 whole entry, looked up): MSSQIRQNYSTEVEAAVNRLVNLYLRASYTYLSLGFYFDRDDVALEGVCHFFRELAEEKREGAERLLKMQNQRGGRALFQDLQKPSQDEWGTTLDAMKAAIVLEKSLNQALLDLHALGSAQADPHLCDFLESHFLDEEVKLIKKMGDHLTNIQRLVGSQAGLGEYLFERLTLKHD
Assay: qHTS Assay for Identification of Novel General Anesthetics; note: nearly all actives have a fitted effect of over 20% in size
Settings: apoferritin/1-aminoanthracene competitive binding, fluorescence; activity change, negative = displacement: at 77.5 µM (top of the series)
Outline: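 Probe: 1-aminoanthracene (50% saturated, PBS). Protein: horse-spleen apoferritin, 10 uM. Incubation: 10 min, room temperature. Detection: 380 nm excitation, 535 nm emission. Analysis: normalized response, four-parameter Hill.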
% is set by controls: 0 for no effect and ±100 for the full control effect; potency is the fitted concentration of half-maximal effect; tags give direction and shape of the fitted curve.

SMILES | Potency | activity change, negative = displacement
Nn1c(SCC(=O)Nc2ccc3c(c2)OCO3)nnc1C1CCCCC1 | active: 5.01 µM | 
Cc1cc(C)c(S(=O)(=O)c2ccccc2C)c(Cl)n1 | inconclusive: 28.2 µM [inhibitor, single point] | 
CCOCCc1nn2c(=O)cc(COC(=O)c3ccccc3NC(=O)CC(C)C)nc2s1 | inconclusive: 28.2 µM [inhibitor, single point] | 
CC(C)Nc1oc(Cc2cccc3ccccc23)nc1C#N | inconclusive: 35.5 µM [inhibitor, partial curve] | 
COC(=O)c1scc(-c2ccc(C)cc2)c1S(=O)(=O)N1CCN(c2ccccc2F)CC1 |  | inactive: 55.7%
CCn1nnnc1-c1ccc(OC)c(S(=O)(=O)NCc2ccccc2)c1 |  | inactive: -6.39%
Cc1c(O)ccc(NS(=O)(=O)c2ccccc2)c1C | inconclusive: 39.8 µM [inhibitor, single point] | 
O=C(Nc1ccc(Cl)cc1)c1ccc(OCC2CCCO2)cc1 (centres undefined) |  | inactive: 1.94%
CC(=C\c1ccccc1)/C=C1/SC(=S)N(C(C(=O)O)C(C)C)C1=O (centres undefined) | inconclusive: 44.7 µM [inhibitor, single point] | 
O=C(NCC1CCCO1)c1sc2cc(Cl)ccc2c1Cl (centres undefined) |  | inactive: -12.1%
CC1CC(=O)N(CC(=O)Nc2ccc(OC(F)(F)F)cc2)c2ccccc2S1 (centres undefined) | inconclusive: 39.8 µM [inhibitor, partial curve] | 
Cc1ccc(NC(=O)COC(=O)COc2cccc3c2OC(C)(C)C3)cc1C | inconclusive: 14.1 µM [inhibitor, partial curve] | 
Cc1cc(C(=O)NN=C(Cc2ccccc2)Cc2ccccc2)c(C)o1 | inconclusive: 35.5 µM [inhibitor, partial curve] | 
Clc1ccc(Oc2cnns2)c(Cl)c1 | inconclusive: 31.6 µM [inhibitor, partial curve] | 
CCCN(CCC)CCNC(=O)c1nn(C)c2c1CS(=O)(=O)c1ccccc1-2 | inconclusive: 14.1 µM [inhibitor, partial curve] | 
Cc1ccc2nc(SCc3nnc(-c4cccs4)o3)[nH]c2c1 | inconclusive: 39.8 µM [inhibitor, partial curve] | 
CC(C)n1c(-c2ccco2)csc1=Nc1cccnc1 | inconclusive: 35.5 µM [inhibitor, partial curve] | 
Cc1ccc(OCc2cc(C(=O)NC3CCCCC3)no2)cn1 | inconclusive: 31.6 µM [inhibitor, single point] | 
O=C(CNC(=O)c1ccc(F)cc1)N/N=C/c1ccc(O)c([N+](=O)[O-])c1 | inconclusive: 12.6 µM [inhibitor, partial curve] | 
CN(C)S(=O)(=O)c1cccc(NC(=S)Nc2cc(Cl)cc(Cl)c2)c1 | inconclusive: 50.1 µM [inhibitor, single point] | 
Cc1cc(C(=O)CN2C(=O)C3CC=CCC3C2=O)c(C)n1-c1ccccc1 (centres undefined) | inconclusive: 28.2 µM [inhibitor, partial curve] | 
COC(=O)C(Cc1ccc(OC(=O)c2ccc(C(F)(F)F)cc2)cc1)N1Cc2ccccc2C1=O (centres undefined) | inconclusive: 35.5 µM [inhibitor, partial curve] | 

SMILES | Potency | activity change, negative = displacement
O=C(NCc1ccccc1)c1ccc(N2C(=O)C3CCCCC3C2=O)cc1 (centres undefined) | inconclusive: 20 µM [inhibitor, partial curve] | 
COc1ccc(COc2ccc(S(=O)(=O)N3CCCC3)cc2C(N)=O)cc1F |  | inactive: -13.2%
O=C(Nc1ccccc1)c1ccccc1NC(=O)C1CCCCC1 | inconclusive: 22.4 µM [inhibitor, partial curve] | 
CCCc1cc(-c2n[nH]c(=S)n2CC)cs1 | inconclusive: 22.4 µM [inhibitor, single point] | 
CCC/C=N/NC(=O)CNC(=O)c1ccccc1Cl | inconclusive: 28.2 µM [inhibitor, partial curve] | 
CC1=Nc2cc(C(=O)N3CCCCC3)ccc2Sc2ccc(C)cc21 | inconclusive: 56.2 µM [inhibitor, single point] | 
CC#C[C@]1(O)CC[C@H]2[C@@H]3CCC4=CC(=O)CCC4=C3[C@@H](c3ccc(N(C)C)cc3)C[C@@]21C | inconclusive: 14.1 µM [inhibitor, partial curve] | 
COC(=O)c1ccc(NC(=O)Nc2ccc(F)cc2F)cc1 |  | inactive: -5.71%
O=C1c2ccccc2NC(c2ccccn2)N1c1ccc(Cl)cc1 (centres undefined) |  | inactive: 63.7%
COc1cc(OC)c2ccc(=O)oc2c1C(CCN1CCOCC1)c1ccc2c(c1)OCO2 (centres undefined) |  | inactive: -5.43%
O=C(Oc1cccc(O)c1)C1CCCCC1 | inconclusive: 10 µM [inhibitor, partial curve] | 
O=C(Nc1ccc(F)c(Cl)c1)NC1CC1 |  | inactive: -4.43%
O=C(CSc1nccn1Cc1ccc(Cl)cc1)Nc1ccc2c(c1)OCO2 | inconclusive: 12.6 µM [inhibitor, partial curve] | 
COC(=O)c1c(NC(=O)C2(C)Cc3ccccc3C(=O)O2)sc2c1CCCC2 (centres undefined) | inconclusive: 3.98 µM [inhibitor, full curve, poor fit] | 
Cc1cc(C)cc(OCCSc2nc(-c3cccs3)nc3cc(=O)[nH]n23)c1 | inconclusive: 28.2 µM [inhibitor, partial curve] | 
COC(=O)c1cc(NC(=O)c2cccc(C(F)(F)F)c2)c(=O)oc1C/C=N/OCc1cccc(Cl)c1Cl | inconclusive: 39.8 µM [inhibitor, partial curve] | 
CCc1ccc(C2c3c(-c4ccccc4)n[nH]c3C(=O)N2c2ccc(C(=O)O)cc2)cc1 (centres undefined) |  | inactive: -9.95%
COc1ccccc1C(=O)Nc1ccnn1C1CCN(C/C=C/c2ccc(F)cc2)CC1 | inconclusive: 28.2 µM [inhibitor, partial curve] | 
O=C(CN1N=C(c2ccccc2)CCC1=O)NCc1ccc(F)cc1Cl | inconclusive: 8.91 µM [inhibitor, full curve] | 
O=C1C=CC(=O)N1c1cccc(-c2ccccc2)c1 |  | inactive: -1.98%
Cc1ccc(C(=O)N2CCN3C(=O)c4ccccc4C23c2ccc(Cl)cc2)cc1 (centres undefined) | inconclusive: 28.2 µM [inhibitor, partial curve, poor fit] | 
O=C(NC1CCCCC1)N1CCCCCCC1 | inconclusive: 14.1 µM [inhibitor, partial curve] | 
